Test results: the supplement of paper PMC3334620
Over roughly 33,000 sequences, “E-score (-0.5 to 0.5)” has its median near -0.012; the highest 2% begin near 0.29. The list shows a part of the results.

These sequences were tested against T1, Ybr033w (UniProt P38073) (assay: PBM E-score (8-mer binding enrichment) (E-score (-0.5 to 0.5)); higher = stronger / more preferred TF binding; most listed sequences are background and not binding sites). Settings: protein concentration: 200 nM; construct: GST-full length.
T1 sequence: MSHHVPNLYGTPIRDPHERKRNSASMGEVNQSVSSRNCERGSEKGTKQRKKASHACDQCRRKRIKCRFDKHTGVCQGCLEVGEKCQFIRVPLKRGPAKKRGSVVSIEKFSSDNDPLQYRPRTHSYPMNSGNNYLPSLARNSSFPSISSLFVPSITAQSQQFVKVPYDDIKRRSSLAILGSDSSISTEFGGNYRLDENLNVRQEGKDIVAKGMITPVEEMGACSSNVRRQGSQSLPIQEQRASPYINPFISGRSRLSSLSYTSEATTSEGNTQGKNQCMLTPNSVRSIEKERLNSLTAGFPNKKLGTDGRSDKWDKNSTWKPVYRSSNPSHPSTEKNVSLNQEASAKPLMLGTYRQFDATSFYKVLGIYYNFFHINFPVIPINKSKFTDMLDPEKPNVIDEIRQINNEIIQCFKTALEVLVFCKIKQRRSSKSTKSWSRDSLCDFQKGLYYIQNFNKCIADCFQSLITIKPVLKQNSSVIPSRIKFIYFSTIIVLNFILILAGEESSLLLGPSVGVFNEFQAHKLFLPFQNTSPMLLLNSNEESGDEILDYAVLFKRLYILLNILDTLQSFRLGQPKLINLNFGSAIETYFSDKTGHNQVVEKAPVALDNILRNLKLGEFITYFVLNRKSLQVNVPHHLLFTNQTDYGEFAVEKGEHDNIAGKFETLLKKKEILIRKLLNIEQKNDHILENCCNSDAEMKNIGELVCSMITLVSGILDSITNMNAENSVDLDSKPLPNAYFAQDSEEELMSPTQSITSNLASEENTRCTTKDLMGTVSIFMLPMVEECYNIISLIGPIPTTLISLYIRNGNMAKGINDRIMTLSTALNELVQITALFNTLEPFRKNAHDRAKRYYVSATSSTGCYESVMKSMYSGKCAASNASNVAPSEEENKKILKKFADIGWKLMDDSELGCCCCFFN
Outline: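 The E-score, a modified Wilcoxon-Mann-Whitney statistic, was computed by the Universal PBM Analysis Suite for every ungapped eight-base word pooled with its reverse complement. Scans behind it were normalised with masliner after bound GST-tagged yeast transcription factors were detected with fluorescent anti-GST. The proteins, at about 100-200 nM, had been applied to universal all-10-mer Agilent arrays made double-stranded by primer extension.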

Sequence | PBM E-score
CGTAACCA | 0.106
CCTTCCCC | -0.259
ACACCAGA | 0.059
CCAAGGGC | -0.153
AAACGTTA | 0.108
AATGGGAT | -0.0179
CACGAGAG | -0.159
CTAATCTC | -0.0112
TCAGCTAA | 0.0703
GACCTGAA | -0.0895
CGCATGTC | -0.105
GATACATA | 0.263
AAAGTGGG | -0.0583
AATTATAT | 0.271
CGCGCGAG | -0.0674
AGAACAAA | 0.33
CAGCTAGC | -0.152
CGGTTTAC | -0.049
TTTAGAAA | 0.273
CGATCTCC | -0.0779
GCTCTATA | -0.218
AGTCCTGA | -0.0791
AATGGACT | -0.032
CTGACTGA | -0.175
GTTTGCCA | 0.0264

Sequence | PBM E-score
AAACCCAT | 0.155
ACGAGACG | -0.0628
AACCGTGT | 0.0694
AGTGCCGG | -0.16
ATGATGGG | -0.214
GCGTCAAC | -0.174
ATAGCAAG | 0.0646
AGCTTGAT | -0.0565
CACTAAGC | 0.093
ACTGCACC | -0.018
CACGCAAG | 0.073
GTTAGTCA | 0.0324
CGGGGACA | -0.307
CATTGAGC | -0.0469
TAGTCAAA | 0.225
TTACGGAA | 0.13
CGAAGAGC | -0.0243
ACGGTCCT | -0.389
CGATCTTA | -0.0455
ATGCGCTA | 0.0737
CCGCGTAA | -0.12
CTTAAGAC | -0.0563
CTGAGGCA | -0.251
CAACTCAA | 0.261
CGATGCGC | 0.0464

Sequence | PBM E-score
CGTAAAAG | 0.215
AACGATAT | 0.265
AAAATCCG | 0.226
ATACTATA | 0.217
AAAATCGA | 0.16
GCGTCTGA | -0.0106
ATCCCCCA | -0.371
GAACGCCC | -0.0907
GCCTAAGC | -0.182
ACTGGAAG | 0.0135
ATGTGATA | 0.104
AATTACGT | 0.0775
AATTTGGC | 0.088
ACGAGCGC | -0.0924
AAGACGGG | -0.19
AGACGGAC | -0.0985
GACCGTAA | -0.0228
CAGCAGTA | -0.173
GCATTACC | -0.197
CAGCTCTC | -0.186
AAATCTTG | 0.161
TAGGACTA | -0.018
AACGTCGA | 0.0522
CAAACGTG | 0.0486
TAGCATAA | 0.131

Sequence | PBM E-score
CACAATAG | 0.0709
GGCCGGAA | 0.00433
CTCGCTTC | -0.141
ACGGTAGC | -0.123
ACATATGG | 0.0477
CTACAACC | 0.0217
GGCGCAGA | -0.125
GGCCGGCA | -0.101
TGACCACA | 0.0413
ATTCCAAA | 0.122
CGATAGAG | -0.105
CGCACTCA | -0.00522
ACTTCTAG | -0.275
AAACATAG | -0.0824
AAGTGCGG | 0.00906
CCATTGTC | -0.115
GCCAGTAA | -0.181
ACATGTTC | 0.0642
ACAATAGA | 0.0135
AGCCGTAG | 0.0421
ATTGGGGG | -0.226
AATTGTGC | 0.0541
CGGCCGCC | -0.311
CCTATCGA | -0.0516
GAGGCCGA | -0.114

Sequence | PBM E-score
CGTCAGGC | -0.119
CTCCCACC | -0.266
CGTGCTCA | -0.0648
CCACGACG | -0.112
GATGCCAA | -0.0929
ACTTTATG | 0.132
CGTCTAGA | -0.0834
GCGTACGA | -0.0653
TAATAGGA | 0.233
TCTTTAAA | 0.23
AGGGTTTA | 0.099
ATTGAGGG | -0.0862
ATAAGTAT | 0.244
CCGCTCCC | -0.344
AGACTCAC | -0.129
ATATCTAG | 0.112
CAGGTTAG | -0.0552
CTTCGTTA | 0.0726
ATTCGCCG | 0.0215
CGACACCA | -0.117
CGCGTAAG | -0.00396
GTAGCGAA | 0.0213
CAATTATC | 0.365
CAGCGCCA | -0.0653
ACTGATTA | 0.041

Sequence | PBM E-score
TCGTGTCA | -0.0803
CCCTGCGC | -0.153
AAACTATG | 0.031
ACGTTAAA | 0.223
CCACGTAG | -0.372
CGTGCTTC | -0.00539
CGTTAAAG | 0.0631
GCGCTTCA | -0.119
AAGACCAA | 0.0438
AAGGGGCG | -0.388
GAGACTGC | -0.177
AACTTATC | 0.15
ATCACCCC | -0.165
CTAAAAAC | -0.0569
CCTAGCCG | -0.157
AGCCCAGA | -0.019
GCGCGTCC | -0.228
ACAACAGA | 0.0571
TACCCGAA | -0.0207
CGCACCTA | -0.142
ACATATCG | 0.142
ATAGGCAG | 0.146
CGTACTTC | 0.107
GAGGTTCA | 0.102
TGAGAAAA | 0.171

Sequence | PBM E-score
GCACTGCC | -0.0815
CATTTCTC | 0.176
AACCCCCA | -0.327
AAACCGAT | -0.13
CAGCGGCC | -0.213
GCGGCTCA | -0.114
ATGTGGTG | 0.00042
CGTTATAG | 0.14
AGAGGCGC | -0.253
ACGACCAC | -0.074
ACGCCCCT | -0.389
GGCTAGAA | -0.0194
AGAGTGAA | 0.133
CGGCGCCC | -0.165
CGGCTCTC | -0.149
ATCGGGGA | -0.0917
AGCGGATA | -0.0282
GAGCTCAA | -0.0698
ACGTTCCT | 0.0175
CTAACAAG | 0.143
GGAATACA | -0.0739
ACCAAGAG | -0.131
